# In the supplement of paper PMC12217912:
# This is one part of the list. The full chains were built here from the parent and the listed change. Inactive controls read about 0.05.
# B1: TEV protease; numbered along this chain (parent)
# chain: MGESLFKGPRDYNPISSSICHLTNESDGHTTSLYGIGFGPFIITNKHLFRRNNGTLVVQSLHGVFKVKDTTTLQQHLVDGRDMIIIRMPKDFPPFPQKLKFREPQREERICLVTTNFQTKSMSSMVSDTSCTFPSGDGIFWKHWIQTKDGQCGSPLVSTRDGFIVGIHSASNFTNTNNYFTSVPKNFMELLTNQEAQQWVSGWRLNADSVLWGGHKVFMVKPEEPFQPVKEATQL
# Variants of: B1
# Assay: raw area under fraction-flipped curve 0-4 h after induction (AUC4h, not background-subtracted), DNA-recorder readout of cleavage of the substrate (dimensionless); higher = more cleavage of the substrate by the protease variant
# Conditions: temperature: 34 °C; time window: 0-4 h after rhamnose induction
# Experimental: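 In vivo DNA recorder in E. coli TOP10(DE3) ΔrhaA at 34 °C. Each TEVp single-site mutant (parent TEVp 0) is paired with a single-site variant of the 7-mer TEVs (canonical ENLYFQ|S). The substrate sits between flexible linkers in a Bxb1-sfGFP-TEVs-SsrA fusion, so cleavage stabilises Bxb1 and speeds flipping of a recombination array, read by NGS. The value is the raw area under the fraction-flipped curve over 0-4 h after rhamnose induction (AUC4h), with ≥20 reads per time point. It is not background-subtracted; inactive controls average about 0.047.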
# 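Further: Bxb1 expression induced with 0.2% (w/v) L-rhamnose at OD600 near 0.5, cultures sampled hourly, flipped fraction per protease–substrate barcode pair counted by paired-end Illumina sequencing.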
Variant,area with substrate ENLYFQA,area with substrate ENLYFQF,area with substrate ENLYFQG,area with substrate ENLYFQI,area with substrate ENLYFQL,area with substrate ENLYFQM,area with substrate ENLYFQN,area with substrate ENLYFQQ,area with substrate ENLYFQR,area with substrate ENLYFQS,area with substrate ENLYFQT,area with substrate ENLYFQV,area with substrate ENLYFQY,area with substrate ENLYFQC,area with substrate ENLYFQD,area with substrate ENLYFQH,area with substrate ENLYFQK,area with substrate ENLYFQP,area with substrate ENLYFQW,area with substrate ENLYFQE
Q146R,0.1,0.0751,0.119,0.0656,0.0665,0.0776,0.0716,0.0686,0.0674,0.108,0.0576,0.0612,0.0747,,,,,,,
T147N,0.0662,,0.0659,0.0556,0.0527,0.0596,0.0599,0.0509,,0.0655,0.0486,0.0622,,0.0741,0.0447,0.0693,0.0583,0.0576,0.0466,
I145D,0.0399,,0.0665,0.045,0.0609,0.0686,,,0.0582,0.0568,0.0613,,0.0585,0.0732,0.0643,,0.0556,0.0798,0.0596,
C152S,0.0787,,0.0547,,0.0531,0.0569,0.0621,,0.0546,0.0763,0.0485,0.0659,,0.097,,,0.0586,0.0574,0.104,0.0644
I139S,0.0988,0.0987,0.135,,0.0694,,0.0985,0.117,0.0649,0.126,0.0765,,0.0602,0.161,,0.0696,0.0692,,0.0573,
I139A,0.125,0.0562,,0.0627,0.0584,0.143,,,0.0594,0.122,0.0612,,0.108,,,0.0479,0.0659,,,0.0662
I139G,0.111,0.0707,0.104,0.0527,0.0463,0.0675,0.0791,,0.0572,0.11,0.0627,0.0585,0.0556,0.124,0.0757,0.0842,,0.0459,0.0599,
L156W,0.062,0.0424,0.0617,0.0596,0.0567,0.0586,0.0524,0.0448,0.0542,0.0599,0.0587,0.058,0.0595,0.0627,0.0654,0.059,0.0601,0.0701,0.0551,0.0568
P155L,0.0509,0.0518,0.066,,0.0502,0.0494,0.0445,0.0693,0.0588,0.0586,0.0538,0.0672,,0.0635,,0.0434,0.0532,0.0777,0.0535,0.0515
P155S,0.0355,0.0506,0.0576,0.0521,0.0514,0.0479,,,0.0489,0.0646,,0.0636,0.0526,,0.0852,0.0543,0.0689,0.0504,,
P155W,0.0522,,,0.0393,0.0413,0.0507,0.0777,,0.0505,0.0535,0.0492,0.0692,0.0548,0.0533,,0.0487,0.0466,,0.0623,0.0733
P155A,0.108,,0.113,0.0628,0.066,0.0689,0.0752,,0.0508,0.101,0.0683,0.0559,,0.11,0.0781,,,,0.0534,0.0613
K142E,0.0798,,0.0823,0.0577,0.0541,0.0656,,,0.0532,0.0868,,0.0633,0.0636,0.0859,0.0652,0.079,0.0655,,0.063,
K142T,0.0921,0.0942,0.0537,0.08,0.0838,0.0821,0.0727,,,0.0909,0.0675,,,0.0921,,,0.0464,,0.0611,0.0575
K142F,0.0918,0.0651,0.0679,0.0677,0.0605,,,0.0568,0.0639,0.091,0.0672,0.0625,,0.105,0.0875,0.0822,0.073,,0.066,
K148G,0.0841,0.0576,0.0619,0.0605,0.0605,0.0744,0.0762,0.059,0.0596,0.0862,0.0557,0.0572,0.0547,0.094,0.0679,0.0782,0.0639,0.0682,0.0584,
H143P,0.0919,,0.0558,0.0505,0.0515,,0.0492,,0.0616,0.0555,0.0625,0.0499,0.0527,0.0573,0.0632,0.0537,0.0621,0.0572,0.0513,
H143A,0.0942,0.0627,0.0665,,0.0602,0.0701,0.0786,0.0619,0.0542,0.0949,0.0479,,0.0625,0.105,0.064,0.0959,0.049,0.0523,0.0511,0.0652
G150K,0.0474,,,0.0625,0.0519,0.0659,0.0572,0.0779,0.0621,0.0606,,,,0.0561,0.0529,,0.0578,,0.0544,
G150R,0.0643,0.056,0.0654,0.0618,0.0582,0.0579,0.0685,0.0568,0.0578,0.0583,0.0603,0.049,0.0542,0.048,,0.059,0.0554,0.0512,0.0613,
D137L,0.0924,,0.0898,,,0.0622,0.0692,,0.0634,0.0952,0.0691,,,0.11,,0.0799,0.0716,0.0286,,
D137R,0.0827,,0.0779,0.0558,0.0616,0.0688,0.0785,0.0615,0.0701,0.0769,,0.0511,,0.0928,,0.0696,0.0581,0.0487,0.0631,
D137N,0.101,0.0775,0.0979,0.0566,0.062,0.076,0.0765,,0.0581,0.0958,0.0674,0.0513,0.0854,0.1,,0.0769,0.0616,0.0642,0.0649,
